The source of these data is the BET-seq Pho4 binding data (Le et al. 2018).

This is one part of the list. The energies were worked out here from pooled read counts, against the library average; single values are noisy.

The assay deals with T1, Pho4 (S. cerevisiae) (UniProt P07270).
T1 sequence: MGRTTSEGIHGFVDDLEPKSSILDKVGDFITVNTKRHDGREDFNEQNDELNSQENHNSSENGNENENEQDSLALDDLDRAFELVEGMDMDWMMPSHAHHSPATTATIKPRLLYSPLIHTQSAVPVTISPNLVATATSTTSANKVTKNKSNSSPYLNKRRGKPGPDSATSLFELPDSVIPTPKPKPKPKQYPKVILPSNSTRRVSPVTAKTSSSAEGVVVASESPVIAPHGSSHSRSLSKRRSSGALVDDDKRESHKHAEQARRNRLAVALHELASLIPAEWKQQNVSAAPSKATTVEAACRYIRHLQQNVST
The assay can be described thus: relative binding free energy (BET-seq); higher = weaker binding. The conditions noted are these: reference: library average.
As for AGCGCCACGTGGTTGG, the “relative binding free energy” value was -0.12 kcal/mol.

For the sequence ATGTACACGTGAAGAG, the “relative binding free energy” value was determined as 0.24 kcal/mol.

Regarding AATGACACGTGTGATG, the “relative binding free energy” value stood at 0.28 kcal/mol.

As for GTGTACACGTGTGGAT, the “relative binding free energy” value turned out to be 0.05 kcal/mol.

In the case of TATTTCACGTGAACGG, the “relative binding free energy” value came out at 0.45 kcal/mol.

On to AAGGGCACGTGGCGAG, for which the “relative binding free energy” value was -0.17 kcal/mol.

In the case of TCGGTCACGTGTTCAT, the “relative binding free energy” value was determined as 0.25 kcal/mol.

CTGGGCACGTGTTGGA: the “relative binding free energy” value is -0.17 kcal/mol.

GGTTGCACGTGATAGG: the “relative binding free energy” value amounted to 0.09 kcal/mol.

For GGATTCACGTGGGGAC, the “relative binding free energy” value was 0.27 kcal/mol.

For GTAGACACGTGATCGT, the “relative binding free energy” value came out at 0.13 kcal/mol.

TGCTACACGTGTTTTA: the “relative binding free energy” value came out at 0.11 kcal/mol.

As to GTGCGCACGTGAAGGT, the “relative binding free energy” value worked out at 0.18 kcal/mol.

Regarding CTGGACACGTGGTTTA, the “relative binding free energy” value amounted to 0.1 kcal/mol.

Turning to CGGGTCACGTGACGGT, the “relative binding free energy” value came to 0.23 kcal/mol.

Turning to TTATCCACGTGGGTGA, the “relative binding free energy” value is -0.2 kcal/mol.

In the case of AGTTACACGTGCTGGA, the “relative binding free energy” value was 0.1 kcal/mol.

Regarding GAGTTCACGTGGTGCG, the “relative binding free energy” value came out at 0.3 kcal/mol.

As to TAGAGCACGTGTTAGG, the “relative binding free energy” value was -0.15 kcal/mol.

On to AGGGTCACGTGGGATC, for which the “relative binding free energy” value was found to be 0.06 kcal/mol.

CTTTACACGTGAGTGT: the “relative binding free energy” value is 0.23 kcal/mol.

Regarding TGTGTCACGTGTTTCT, the “relative binding free energy” value was found to be 0.07 kcal/mol.

On to TGAGTCACGTGTTAAG, for which the “relative binding free energy” value came out at 0.12 kcal/mol.

With AGTCGCACGTGAAGGG, the “relative binding free energy” value is 0.25 kcal/mol.

As to TATTCCACGTGATAGG, the “relative binding free energy” value worked out at 0.15 kcal/mol.

As for TAGGTCACGTGATGTC, the “relative binding free energy” value was determined as 0.2 kcal/mol.

On to GGTCTCACGTGGGAGA, for which the “relative binding free energy” value came to 0.19 kcal/mol.

Take TATAACACGTGTTTGT: the “relative binding free energy” value is -0.06 kcal/mol.

Consider AATTTCACGTGGGGAA, for which the “relative binding free energy” value came to 0.29 kcal/mol.

On to TTCGGCACGTGTGTCT, for which the “relative binding free energy” value was found to be 0.04 kcal/mol.

Consider GCATGCACGTGTGGAT, for which the “relative binding free energy” value came to 0.12 kcal/mol.

As for TTGGGCACGTGTCGCT, the “relative binding free energy” value is -0.23 kcal/mol.

Turning to AATGCCACGTGGGGAT, the “relative binding free energy” value was -0.12 kcal/mol.

As to AGCTACACGTGGGCGG, the “relative binding free energy” value was -0.1 kcal/mol.

In the case of AAGTGCACGTGTTTCT, the “relative binding free energy” value stood at 0.06 kcal/mol.

For the sequence ATGGTCACGTGTCCTG, the “relative binding free energy” value amounted to 0.22 kcal/mol.

Regarding AGTTCCACGTGAGATG, the “relative binding free energy” value was 0.21 kcal/mol.

For TCGTTCACGTGATGGT, the “relative binding free energy” value is 0.39 kcal/mol.

Regarding AGTTTCACGTGGGGAA, the “relative binding free energy” value was 0.26 kcal/mol.

For the sequence GGGGACACGTGGGTAC, the “relative binding free energy” value was -0.1 kcal/mol.

Take AGGGGCACGTGTGATC: the “relative binding free energy” value worked out at 0.04 kcal/mol.

As for CCGGGCACGTGGGAAG, the “relative binding free energy” value is -0.08 kcal/mol.

For the sequence GGGGGCACGTGGCGGC, the “relative binding free energy” value is -0.19 kcal/mol.

For ATCTGCACGTGCGGTA, the “relative binding free energy” value stood at 0.04 kcal/mol.

With GGTTACACGTGGGATT, the “relative binding free energy” value turned out to be 0.22 kcal/mol.

AGTGACACGTGATGGG: the “relative binding free energy” value is 0.24 kcal/mol.

Consider ATTCTCACGTGTTTGA, for which the “relative binding free energy” value was found to be 0.03 kcal/mol.

For the sequence TGTTGCACGTGCGTTC, the “relative binding free energy” value was -0.09 kcal/mol.

With CGAGTCACGTGTATTT, the “relative binding free energy” value was found to be 0.16 kcal/mol.

As for TGTTCCACGTGGGTAT, the “relative binding free energy” value is -0.08 kcal/mol.

In the case of TTCTTCACGTGATTTT, the “relative binding free energy” value stood at 0.23 kcal/mol.

Take TGTTGCACGTGTTTTC: the “relative binding free energy” value is 0.03 kcal/mol.

As to TGTGCCACGTGGATTT, the “relative binding free energy” value was -0.06 kcal/mol.

Take TTGGTCACGTGCTTTC: the “relative binding free energy” value came out at 0.17 kcal/mol.

Take ACTGTCACGTGTGAGT: the “relative binding free energy” value was found to be 0.43 kcal/mol.

For the sequence GTAAACACGTGGGCTT, the “relative binding free energy” value is -0.1 kcal/mol.

As for TCTTTCACGTGAATGG, the “relative binding free energy” value stood at 0.43 kcal/mol.

Regarding CGCATCACGTGTTGGT, the “relative binding free energy” value turned out to be 0.09 kcal/mol.

With TGGGCCACGTGGGGGT, the “relative binding free energy” value was -0.19 kcal/mol.

GGGCACACGTGTAGGG: the “relative binding free energy” value was 0.05 kcal/mol.

On to GTTGTCACGTGGCTTC, for which the “relative binding free energy” value was 0.02 kcal/mol.

As for TTGGGCACGTGCTAGG, the “relative binding free energy” value is -0.13 kcal/mol.

With TGGATCACGTGGAGAT, the “relative binding free energy” value turned out to be 0.01 kcal/mol.

Consider GTGTTCACGTGATTTT, for which the “relative binding free energy” value amounted to 0.43 kcal/mol.

On to TTGGTCACGTGCAGAT, for which the “relative binding free energy” value is -0.01 kcal/mol.

For ACTTTCACGTGTAAGG, the “relative binding free energy” value was found to be 0.21 kcal/mol.

For the sequence ACTGTCACGTGACTGG, the “relative binding free energy” value was determined as 0.34 kcal/mol.

For the sequence TATAACACGTGATGTT, the “relative binding free energy” value is 0.1 kcal/mol.

CGAGTCACGTGTTGTG: the “relative binding free energy” value was -0.04 kcal/mol.

On to AGTAACACGTGAAGTG, for which the “relative binding free energy” value came to 0.11 kcal/mol.

Consider GGATGCACGTGTGGAG, for which the “relative binding free energy” value came out at 0.05 kcal/mol.

On to TTGCCCACGTGGGTAG, for which the “relative binding free energy” value was -0.15 kcal/mol.

Turning to GGAATCACGTGGGCGG, the “relative binding free energy” value came out at 0.05 kcal/mol.

As to AGTTTCACGTGCTGGG, the “relative binding free energy” value is 0.26 kcal/mol.

With GGGGTCACGTGGAGCG, the “relative binding free energy” value was found to be 0.16 kcal/mol.

Take GAATACACGTGGGAGT: the “relative binding free energy” value was 0.12 kcal/mol.

For the sequence TTCATCACGTGTTTAT, the “relative binding free energy” value came to 0.13 kcal/mol.

GAGTACACGTGTTTTA: the “relative binding free energy” value was determined as 0.1 kcal/mol.

Consider TGCTTCACGTGGATGA, for which the “relative binding free energy” value amounted to 0.33 kcal/mol.

As to TTGTGCACGTGAGTCA, the “relative binding free energy” value stood at 0.07 kcal/mol.

With ATCGCCACGTGAGGGG, the “relative binding free energy” value stood at 0.19 kcal/mol.

TAAAGCACGTGTGGGG: the “relative binding free energy” value is -0.05 kcal/mol.

With AGCTGCACGTGGAGGA, the “relative binding free energy” value was -0.02 kcal/mol.

Turning to ATAGGCACGTGGGCAG, the “relative binding free energy” value is -0.23 kcal/mol.

For GGTTACACGTGGTGTT, the “relative binding free energy” value was found to be 0.1 kcal/mol.

For TCATGCACGTGAGCGT, the “relative binding free energy” value came out at 0.25 kcal/mol.

Consider GTTGACACGTGGGATA, for which the “relative binding free energy” value is -0.11 kcal/mol.

On to TGTGGCACGTGAACTT, for which the “relative binding free energy” value turned out to be 0.14 kcal/mol.

As to CCTTGCACGTGTGTGG, the “relative binding free energy” value amounted to 0.02 kcal/mol.

As for TCGGGCACGTGGTTCT, the “relative binding free energy” value is -0.11 kcal/mol.

Turning to ATTGGCACGTGCTAAT, the “relative binding free energy” value is -0.03 kcal/mol.

Regarding TGGGCCACGTGGCCGT, the “relative binding free energy” value is -0.09 kcal/mol.

Regarding CAGGGCACGTGGGCGT, the “relative binding free energy” value was -0.34 kcal/mol.

Take CGTTTCACGTGTGTTC: the “relative binding free energy” value is 0.23 kcal/mol.

Regarding AATGGCACGTGTAATA, the “relative binding free energy” value was determined as 0.01 kcal/mol.

On to GTAGGCACGTGAATTG, for which the “relative binding free energy” value amounted to 0.11 kcal/mol.

As for AGGGTCACGTGGAATA, the “relative binding free energy” value turned out to be 0.18 kcal/mol.

Consider GCGGCCACGTGTGGGC, for which the “relative binding free energy” value was found to be 0.1 kcal/mol.

For the sequence CTGAACACGTGGTGGG, the “relative binding free energy” value was -0.06 kcal/mol.

With AATTTCACGTGTTAGG, the “relative binding free energy” value stood at 0.25 kcal/mol.

In the case of AAGGTCACGTGGAGGT, the “relative binding free energy” value was 0.04 kcal/mol.

Regarding TCGGGCACGTGTAGGT, the “relative binding free energy” value is -0.08 kcal/mol.

In the case of ACGGGCACGTGCTGTT, the “relative binding free energy” value is -0.14 kcal/mol.

On to GCGGCCACGTGTGTGG, for which the “relative binding free energy” value was determined as 0.02 kcal/mol.

With TGGGGCACGTGATTTG, the “relative binding free energy” value was 0.06 kcal/mol.

For the sequence TAATCCACGTGGTGGT, the “relative binding free energy” value is -0.07 kcal/mol.

Take TGATTCACGTGTCGGA: the “relative binding free energy” value was 0.24 kcal/mol.

As for TTGGGCACGTGAATTA, the “relative binding free energy” value amounted to 0.08 kcal/mol.

For TGTTGCACGTGTGATT, the “relative binding free energy” value worked out at 0.11 kcal/mol.

As to CGGTACACGTGATTGT, the “relative binding free energy” value is 0.01 kcal/mol.

On to TTAATCACGTGGAATT, for which the “relative binding free energy” value came out at 0.17 kcal/mol.

With ATCTACACGTGGGGTA, the “relative binding free energy” value was 0.01 kcal/mol.

On to GGTACCACGTGGAGGA, for which the “relative binding free energy” value amounted to 0 kcal/mol.

GTGTGCACGTGTATGG: the “relative binding free energy” value was 0.04 kcal/mol.

Turning to CAGGTCACGTGGTGTG, the “relative binding free energy” value came to 0.07 kcal/mol.
